The subject of the assay is NCI-H322M lung. Kind of assay: NCI-60 cell line screen, 48 h.

“And” between values parts separate entries of the source, which are not always exact repeats. Equal values may be shown once.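 Each compound was tested at five concentrations against cells in 96-well plates for 48 hours. GI50 = concentration required for 50% inhibition of growth. At the TGI there is no net growth.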

`CC(C)(C)CC(C)(C)c1cc2c(O)c(c1)Cc1cc(C(C)(C)CC(C)(C)C)cc(c1O)Cc1cc(C(C)(C)CC(C)(C)C)cc(c1O)Cc1cc(C(C)(C)CC(C)(C)C)cc(c1O)Cc1cc(C(C)(C)CC(C)(C)C)cc(c1O)Cc1cc(C(C)(C)CC(C)(C)C)cc(c1O)C2`: the TGI was more than 100 µM.
On the same count and under the same terms, then `O=C1c2ccccc2-c2c1c(-c1ccc([N+](=O)[O-])cc1)nc1ccc3ccccc3c21`, with more than 100 µM.
For `CCN1C(=O)NC(=O)C(C)(N2C(=O)c3c(F)c(F)c(F)c(F)c3C2=O)C1=O` (stereo not drawn), the GI50 was 7.49 µM and the TGI was determined as 21.6 µM.
As for `NCCCCN(CCCN)C(=O)c1ccccc1`, the TGI is more than 100 µM.
Still for that read-out and setting: next, `CC1(C)OC(C[C@]2(C#N)C[C@H](CCl)OC(C)(C)O2)C[C@@H](C[C@]2(C#N)C[C@H](CCl)OC(C)(C)O2)O1` (stereo partly drawn): more than 100 µM; `N#Cc1nc(COCc2ccccc2)oc1N`: more than 100 µM.
On to `N#Cc1ccc(N2Cc3ccccc3OC3=C2C(=O)c2c(O)ccc(O)c2C3=O)cc1`, for which the GI50 is 3.31 µM and the TGI amounted to 12 µM.
On to `CN=C(NC#N)NCCSCc1nc[nH]c1C`, for which the TGI was more than 100 µM.
The same measure, in the same setting: next, `Cc1ccc(S(=O)(=O)/N=C(\N)N(C)N=O)cc1`: more than 100 µM.
As for `O=C(O)c1ccc([N+]2=Cn3c(nc4ccccc43)C2)cc1`, the TGI was more than 100 µM.
For the compound `C=C1CCCCCCCCCCC12SCCC2CCCCSC` (stereo not drawn), the TGI came to 62.1 µM.
As to `CCOC(=O)C1=C(C)NC2SC(=O)/C(=C\c3ccccc3O)N2C1c1ccccc1` (stereo not drawn), the GI50 was 15.4 µM and the TGI was 38.9 µM.
The compound `CCC(=O)N1NC(=O)C(CC)(CC)C1=O` showed a TGI of more than 100 µM.
Still for that read-out and setting: then `O=C(N/C(=C\c1cccc([N+](=O)[O-])c1)c1nc2[nH]c(=S)[nH]c(=O)c2[nH]1)c1ccccc1`, with more than 100 µM.
On to `CC(=O)O[C@H](C[C@H](C(C)C)N(C)C(=O)[C@@H](NC(=O)[C@H]1CCCCN1C)C(C)C)c1nc(C(=O)N[C@@H](Cc2ccccc2)C[C@H](C)C(=O)O)c(C(C)C)s1`, for which the GI50 is less than 0.00333 µM and the TGI is more than 33.3 µM.
On to `NNC(=S)N/N=C(/C(=O)Nc1cc(Cl)ccc1Cl)C1C(=O)Nc2ccccc2S1=O` (stereo not drawn), for which the TGI is more than 100 µM.
Take `CC(=O)OCC(=O)O[C@@H]1C[C@]2(C(C)C)O[C@@]1(C)[C@@H]1CC[C@@H](C)[C@H]1[C@@H]2OC(=O)/C=C/c1ccccc1`: the GI50 is 22.4 µM and the TGI is more than 83.9 µM.
Compound `CCOC(=O)C1=C(O)CSC1=Nc1ccccc1` registered a TGI of more than 100 µM.
Consider `CC/C(=C(/CC)c1ccc([O-])cc1)c1ccc([O-])cc1.CC/C(=C(\CC)c1ccc([O-])cc1)c1ccc([O-])cc1.O=C([CH-]C(=O)c1ccccc1)c1ccccc1.O=C([CH-]C(=O)c1ccccc1)c1ccccc1.O=C([CH-]C(=O)c1ccccc1)c1ccccc1.O=C([CH-]C(=O)c1ccccc1)c1ccccc1.[Ti+4].[Ti+4]`, for which the GI50 was 38.6 µM and the TGI was more than 100 µM.
In turn, `CC(=O)C1=C(C)Cn2c(=O)c3ccccc3c(=O)n2C1` displayed a TGI of more than 100 µM.
The compound `O=C1c2ccccc2C(=O)c2c1ccc1nc3c(nc21)-c1c2ccccc2cc2cccc-3c12` registered a TGI of more than 100 µM.
With `C/C(=C\C1=C(Cl)C(=O)c2ccccc2C1=O)C(=O)O`, the GI50 was 19.1 µM and the TGI is 40.1 µM.
The compound `Cc1ccc(Nc2n[nH]c(=S)s2)cc1` returned a TGI of more than 100 µM.
Regarding `O=C(Nc1ccc(Oc2ccc3nc(NC(=O)c4ccccc4)[nH]c3c2)cc1)Nc1cc(C(F)(F)F)ccc1F`, the GI50 is 8.76 µM and the TGI was more than 25 µM.
Taken in the same sequence, the figures for `CC1CCN(CCCCCOc2ccc3oc4cc(Cl)ccc4c(=O)c3c2)CC1` were 7.19 µM and 13.9 µM.
In turn, `N#C/C(=C\c1ccc(O)c(O)c1)C(=O)NC1CCC(CC2CCC(NC(=O)/C(C#N)=C/c3ccc(O)c(O)c3)CC2)CC1` (stereo not drawn) yielded a TGI of 48 µM.
The same measure, in the same setting: next, `NC(N)=NC(P(=O)(O)O)P(=O)(O)O`: more than 100 µM.
Consider `COc1cccc2c1-c1c(c3ccc([N+](=O)[O-])cc3c(=O)n1CCCCl)C2=O`, for which the GI50 was 40.9 µM and the TGI was more than 50 µM.
Consider `O=P(NC12CC3CC(CC(C3)C1)C2)(N1CC1)N1CC1`, for which the TGI is more than 100 µM.
Take `O=[N+]([O-])c1ccc2c(N3CCC(CCCC4CCN(c5ncnc6cc([N+](=O)[O-])ccc56)CC4)CC3)ncnc2c1`: the GI50 was more than 100 µM and the TGI was more than 100 µM.
For `c1ccc(-c2cc(C3CO3)c3ccccc3n2)cc1` (stereo not drawn), the TGI came to 39.6 µM.
As to `CCOc1cc2c(cc1O)/C(=N\O)C[C@@H]1[C@@H]2CC[C@]2(C)[C@@H](O)CC[C@@H]12`, the GI50 was 0.0428 µM and the TGI was more than 100 µM.
In turn, `O=C(CCl)NC(Cc1ccc(F)cc1)C(=O)O` (stereo not drawn) came in with a TGI of more than 100 µM.
Regarding `O=C1C(C(c2ccccc2)N2CCOCC2)=C(O)C(c2ccccc2)N1c1ccccc1` (stereo not drawn), the TGI is more than 10 µM.
Same read-out and setting: then `N/C(=N\N=C\c1c[nH]c2cc(C(F)(F)F)ccc2c1=O)NO`, with more than 10 µM; and `CC(O)C(N=Cc1nc(-c2ccccc2)oc1O)C(=O)O` (stereo not drawn), with more than 100 µM.
Same read-out and setting: next, `CC(=O)Nc1ccc(CNc2cc(=O)n(C)c(=O)[nH]2)cc1`: more than 100 µM; `O=C1Nc2ccccc2S/C1=C\c1ccccc1C(F)(F)F`: more than 100 µM.
As to `Cc1cccc(/C=C2\CCCc3ccccc3C2=O)c1`, the TGI came to 78.5 µM.
On to `Cc1noc(C)c1-c1cc(O)cc(C(O)c2ccccc2)c1` (stereo not drawn), for which the GI50 was 8.41 µM and the TGI is more than 100 µM.
As for `CN1CCN(c2ccc3nc(-c4c(N)c5c(F)cccc5[nH]c4=O)[nH]c3c2)CC1`, the GI50 is 0.675 µM and 0.411 µM and 0.898 µM; the TGI is 4.81 µM and > 4.42 µM and 14.5 µM.
Turning to `CC(=O)O[C@H]1CC[C@@]2(C)C(=CC[C@@H]3[C@@H]2CC[C@]2(C)Nc4c(cnn4S(C)(=O)=O)C[C@@H]32)C1`, the TGI was more than 100 µM.
In the case of `COc1cc2nccc(Oc3ccc(NC(=O)C4(C(=O)Nc5ccc(F)cc5)CC4)cc3)c2cc1Oc1ccc(N)cn1`, the GI50 was 3.58 µM and the TGI was more than 100 µM.
